Our source for the inhibition values is PubChem BioAssay AID485344 (National Center for Advancing Translational Sciences (NCATS), 2010).

The campaign covered roughly 340,000 compounds. About 6,900 (2%) were called active. Cut-off read from the data, not from the text of the source: active = inhibition above about 30%; inactive = below that, where a call was filed. Only a part is listed here, and it is no random draw. Entries without a call were filed so in the source.

UniProt P14416, sequence (P14416 whole entry, looked up): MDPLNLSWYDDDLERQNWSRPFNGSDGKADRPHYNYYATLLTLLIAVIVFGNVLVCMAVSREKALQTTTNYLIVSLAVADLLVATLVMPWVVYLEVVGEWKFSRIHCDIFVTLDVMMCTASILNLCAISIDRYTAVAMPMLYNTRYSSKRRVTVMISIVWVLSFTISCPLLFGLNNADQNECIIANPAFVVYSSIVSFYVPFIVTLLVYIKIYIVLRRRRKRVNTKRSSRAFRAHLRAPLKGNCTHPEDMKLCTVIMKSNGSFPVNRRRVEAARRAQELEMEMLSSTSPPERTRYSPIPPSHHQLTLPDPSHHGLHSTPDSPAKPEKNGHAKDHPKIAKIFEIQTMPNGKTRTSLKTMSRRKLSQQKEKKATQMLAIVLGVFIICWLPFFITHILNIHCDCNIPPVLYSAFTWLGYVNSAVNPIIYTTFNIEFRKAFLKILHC

The test addresses D(2) dopamine receptor (Homo sapiens) (UniProt P14416). The test is described as follows: HTS Assay for Allosteric Antagonists of the Human D2 Dopamine Receptor: Primary Screen for Antagonists. Note: 0% is about no effect. Particulars: HEK293 TREx D2 cells, calcium flux, dopamine EC80; at 10 µM; stronger effect = higher value. Summed up:
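Read-out: kinetic calcium fluorescence (1 cycle/s) in inducible HEK293 T-REx D2 cells after an EC80 dopamine addition that followed 180 s compound preincubation. Loss of the dopamine response indicates antagonism.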
In general terms: Calcium flux is commonly read through the fluorescence of an indicator in the cells.
`CN(CCOc1ccc(Cl)c(Cl)c1)Cc1ccccc1`: the inhibition is active: 65.4%.
For `CCc1ccccc1NC(=O)CN1C(=O)c2cccnc2Sc2ccccc21`, the inhibition amounted to 12.2%.
With `CCn1c(=O)c2sccc2n2c(CCC(=O)Nc3ccc(OC)cc3OC)nnc12`, the inhibition is -12.5%.
With `Cc1ccc(Cn2c(CNC(=O)Cc3cccc([N+](=O)[O-])c3)nc3cccnc32)cc1` the figure was 3.86%; with `CC(C)N1CCN(Cc2ccsc2)CC1CCO` (configuration not stated), active: 44.4%; with `O=S(=O)(NCC(c1ccccc1)N1CCc2ccccc21)c1ccccc1` (configuration not stated), 1.64%.
Next, `CCn1c(=N)c(C(=O)NCC2CCCO2)cc2c(=O)n3cc(C)ccc3nc21` (configuration not stated): 0.247%.
For `O=c1c2ccccc2n(Cc2c(F)cccc2Cl)c(=O)n1Cc1ccccc1`, the inhibition was -7.08%.
Next, `COCc1nc2ccccc2n1Cc1cccc(C)c1`: 1.02%.
With `COc1ccc(-c2nc3ccccc3s2)cc1NC(=O)c1cccc([N+](=O)[O-])c1C` the figure was 1.57%.
With `CC(NC(=O)CSc1nc(-c2cccc(Cl)c2)nc2cc(=O)[nH]n12)c1nc2ccccc2n1C` (configuration not stated) the figure was 0.171%; with `CCCOc1ccc(C2c3c(-c4ccccc4O)n[nH]c3C(=O)N2Cc2cccnc2)cc1` (configuration not stated), 11.6%; with `CC(C)OCCCn1c(=O)c2ccccc2n2c(-c3cc(Cl)ccc3O)nnc12`, 15.3%.
Regarding `Cc1cn2c(=O)cc(COC(=O)c3ccc(NC(=O)COc4ccc(C)c(C)c4)cc3)nc2s1`, the inhibition was -3.46%.
Next, `COc1cc(C(=O)Nc2ccc(-c3nc4ccccc4o3)c(O)c2)cc(OC)c1OC`: 12.4%.
As for `CCc1ccccc1NC(=O)CSc1nnc(COc2ccccc2Cl)o1`, the inhibition turned out to be 21.1%.
Next, `CCOc1ccc(-c2cc(C(=O)NCCCOC)c3c(-c4ccc(CC)cc4)[nH]nc3n2)cc1`: -1.16%.
Next, `COc1cc2c(cc1OC)C(COc1ccc(F)cc1)N(C(=O)Cc1ccccc1)CC2` (configuration not stated): 3.48%; `COC(=O)c1ccccc1NC(=O)c1cc(CN2CCOCC2)on1`: 4.05%; `CCOc1cc(C(=O)NCc2nc(-c3cccc(C)c3)no2)cc(OCC)c1OCC`: 16.3%.
With `CCc1cccc(C)c1Nc1c(-c2cccs2)nc2nc(C)cc(C)n12` the figure was -0.896%; with `O=C(CSc1nc2ccccc2nc1Cc1ccccc1F)Nc1cccc(C(F)(F)F)c1`, 2.32%; with `COc1ccc(-c2onc(C)c2C)cc1S(=O)(=O)Nc1cc(Cl)ccc1C`, -6.22%.
Consider `CCC(=O)Nc1ccc(CC)cc1-c1nc2ccccc2n(CC(=O)Nc2ccccc2C)c1=O`, for which the inhibition is 13.2%.
Take `Cc1ccc(NC(=O)Cn2c(=O)oc3cc(S(=O)(=O)N4CCCCC4)ccc32)c(C)c1`: the inhibition was found to be 5.02%.
With `COc1ccc(-c2cc3nc(C)c(CCC(=O)N4CCN(c5ccccc5F)CC4)c(C)n3n2)c(OC)c1` the figure was 14.1%; with `Cc1ccc(CNc2ncnc3onc(C)c23)cc1`, -0.202%; with `CCN(CC)c1ccc(NC(=O)CCS(=O)(=O)c2ccc3c(c2)oc(=O)n3C)c(C)c1`, -8.01%.
For `Cc1nn2c(=O)cc(COc3ccc(/C=C(\C#N)C(=O)Nc4ccccc4)cc3Cl)nc2s1`, the inhibition is -8.09%.
Next, `O=C(OCc1ccccc1Cl)c1ccc(-c2nnn(Cc3ccc(F)cc3)n2)cc1`: 9.66%; `Brc1ccc2c(c1)NC(c1cccnc1)=NC(c1ccccc1)=N2`: 9.68%.
Next, `Cc1ccc(CN2c3ccccc3-c3nc(SCC(=O)Nc4c(C)cc(C)cc4C)ncc3S2(=O)=O)cc1`: -1.09%; `Cc1noc(C)c1S(=O)(=O)N1CCN(c2ccccc2)CC1`: active: 38.4%.
Next, `COc1ccc(NC(=O)Nc2cc(-c3cn4cccnc4n3)ccc2OC)cc1`: -22.1%; `CCOc1ccccc1NC(=O)N1CCc2c(sc3c2CCCC3)C1c1ccccc1` (configuration not stated): -9.36%.
As to `CCCCSCCCNC(=O)c1c[nH]c2ccc(S(=O)(=O)Nc3cccc(OC)c3)cc2c1=O`, the inhibition was -7.82%.
As for `COc1ccccc1CN1C(=O)C(=O)c2cccc(C)c21`, the inhibition came to 3.69%.
With `COc1ccc(-n2ccnc(NCCc3ccc(Cl)cc3)c2=O)cc1OC` the figure was -2.07%; with `CC(=O)N1c2ccc(S(=O)(=O)N(C)CC(=O)N(Cc3ccccc3)C(C)C)cc2CC1C` (configuration not stated), 11.1%; with `O=C(Cc1ccccc1)Nc1nnc2n1CCS2`, -13.8%.
Next, `CCN(Cc1ccccc1)Cc1c(O)ccc2oc(C)c(C(=O)Nc3ccccc3C)c12`: 4.82%.
Next, `CCC(C)NC(=O)Cn1c(=O)n(-c2ccc(C)c(C)c2)c(=O)c2c(C)c(C(=O)N(CC)CC)sc21` (configuration not stated): 7.73%; `CCOc1ccccc1NC(=O)CSC1=Nc2ccccc2C2=NC(CC(=O)NCc3ccc4c(c3)OCO4)C(=O)N12` (configuration not stated): 8.94%; `Cc1nn(CC(=O)NCCc2ccccc2)c(=O)c2c1sc1ccccc12`: 12.8%.
Consider `O=c1cc(-c2ccccc2)n2c(SCc3ccc(Br)cc3)nnc2[nH]1`, for which the inhibition amounted to 8.67%.
Next, `COc1ccc(C(CCN2CCN(c3ccccc3)CC2)c2c(O)cc(OC)cc2OC)cc1` (configuration not stated): active: 79.6%; `CCn1c(C(=O)N2CCCC(C(=O)N3CCN(c4ccccc4)CC3)C2)cc2sccc21` (configuration not stated): -2.34%.
`COc1ccc(-c2cc3nccc(-c4cc(Cl)c(C)cc4O)n3n2)cc1`: the inhibition is -5.06%.
For the molecule `C/C(=N\Nc1cccc([N+](=O)[O-])c1)c1cc(F)ccc1O`, the inhibition is active: 35.1%.
Next, `O=[N+]([O-])c1ccc(Cl)c(CN2CCN(c3ncccn3)CC2)c1`: active: 33.2%.
With `CCn1cc(C(=O)N2CCN(c3ccc(OC)cc3)CC2)c2cc(OC)c(OC)cc2c1=O` the figure was 1.63%; with `CCOc1ccccc1C1C(C(=O)Nc2ccccc2)=C(C)Nc2c(C(=O)Nc3ccc(F)cc3)cnn21` (configuration not stated), 15.7%; with `CCOc1ccc(-c2cccc(NS(=O)(=O)c3ccccc3C(F)(F)F)c2)nn1`, -3.8%.
Next, `Cc1ccc(NC(=O)Cn2cc(C(=O)c3ccco3)c3ccccc32)cc1`: 15.2%; `O=S(=O)(c1ccc2nc(Nc3cccc(F)c3)ccc2c1)N1CCCC1`: 3.57%; `Cc1ccccc1Cn1c2ccccc2c2cnn(CC(=O)N3CCC(C)CC3)c(=O)c21`: -1.37%.
Consider `Cc1ccc(S(=O)(=O)NCC(Nc2cccc(Cl)c2)c2ccccc2)cc1` (configuration not stated), for which the inhibition turned out to be 15.5%.
For the molecule `CCOc1ccccc1C(=O)Nc1ccc2nc3c(c(Nc4ccc(OC)c(OC)c4)c2c1)CCCC3`, the inhibition is -8.85%.
For `O=C(NCc1ccc(F)cc1)c1ccc2c(c1)nc1n2CCCCC1`, the inhibition was -16.3%.
Next, `Cc1ncc(CO)c2c1Oc1nc(-c3ccc(F)cc3)nc(SCc3ccc(F)cc3Cl)c1C2`: -8.87%; `Cc1cc(O)c2c(C)c(CC(=O)N3CCCCC3)c(=O)oc2c1`: 1.26%; `COc1ccc(-c2noc(-c3nnn(-c4ccc(C(C)C)cc4)c3C)n2)cc1OC`: -6.83%.
With `Cc1cc(Nc2cccc(Cl)c2)nc2ccc(NC(=O)c3cccc(N(C)C)c3)cc12` the figure was 4.31%; with `O=C(Nc1ccccc1)c1ccc2c(O)c(S(=O)(=O)c3ccc(Cl)cc3)c(=O)[nH]c2c1`, -8.79%.
With `COc1ccccc1C(=O)Nc1onc2c1CCCC2` the figure was 13.1%; with `CCOC(=O)c1ccc(NC(=O)CN2Cc3ccccc3C2=O)cc1`, 2.15%.
Consider `Cc1cc2[nH]c(=O)c(=O)[nH]c2cc1S(=O)(=O)Nc1ccc(OC(F)(F)F)cc1`, for which the inhibition was determined as 7.48%.
With `Cc1cccc(OC(=O)c2cc(-c3ccc4c(c3)OCCO4)on2)c1C` the figure was -14.1%; with `Cc1cccc(N2CCN(c3ccc(NC(=O)c4ccccc4)cc3C(=O)O)CC2C)c1` (configuration not stated), 14%.
With `COc1ccc(-c2noc(CSc3nc(N)cc(=O)[nH]3)n2)cc1` the figure was 0.423%.
Next, `Cc1cccc(NC(=O)c2ccc3nc(CCc4ccccc4)oc3c2)c1C`: -7.41%; `COc1cccc(C2/C(=C(\O)c3ccc4c(c3)OCCO4)C(=O)C(=O)N2Cc2cccnc2)c1` (configuration not stated): active: 30.9%; `CSc1ncc(Cl)c(C(=O)Nc2c(C(=O)c3ccc(C)c(F)c3)oc3ccccc23)n1`: 0.0341%.
Turning to `COc1cccc(NC(=O)CCc2nc(-c3cccs3)no2)c1`, the inhibition is -8.31%.
Next, `CCOc1ccc(C2C(=O)N(C3CCCCC3)CC(=O)N2CCC2=CCCCC2)cc1OC` (configuration not stated): 4.57%; `CCOc1ccc(C(=O)c2cn(CC(=O)Nc3ccc(F)c(F)c3)c3cc4c(cc3c2=O)OCCO4)cc1`: 2.48%; `C/C=C/c1ccc(OCCCCN2CCC(C)CC2)c(OC)c1`: active: 45.6%.
Regarding `Cc1ccc(-n2c(-c3cccc(C)c3)nc3c(cnn3-c3ccccc3)c2=O)cc1`, the inhibition is 8.53%.
With `Cn1c(=O)oc2cc(S(=O)(=O)N3CCCC(C(=O)N4CCN(c5ccc(F)cc5)CC4)C3)ccc21` (configuration not stated) the figure was -5.63%; with `CCc1nn2c(=O)cc(COC(=O)c3ccccc3NC(=O)c3ccc(C(C)(C)C)cc3)nc2s1`, 12.6%.
With `Cc1ccccc1OCC(=O)Nc1nnc(S(=O)(=O)N2CCCCCC2)s1` the figure was 13.7%; with `CC(Oc1ccc(Br)cc1)C(=O)N(Cc1nc(-c2ccccc2)no1)C(C)C` (configuration not stated), 5.36%.
`CSc1cccc(NC(=O)C2CCCN(S(=O)(=O)c3ccc4c(c3)CCCN4C(C)=O)C2)c1` (configuration not stated): the inhibition was 11.2%.
Consider `COc1ccccc1N1CCN(Cc2cc3c(cc2O)OCO3)CC1`, for which the inhibition was active: 98.4%.
With `S=C(Nc1ccccc1)NC1CCN(Cc2ccccc2)CC1` the figure was active: 92.1%; with `CCN(C(=O)COc1ccccc1)c1nnc(-c2cccnc2)s1`, active: 41.5%; with `Cc1ccc(C2c3[nH]c4ccccc4c3CCN2C(=O)CSc2ccccc2)cc1` (configuration not stated), -6.29%.
With `COc1ccc(-c2nc(CSc3nnc(C)n4c3cc3sccc34)c(C)o2)cc1` the figure was 10.3%; with `O=C(Nc1c(C(=O)N2CCN(c3ccccc3F)CC2)oc2ccccc12)c1ccc(Br)o1`, 22.9%.
Next, `Oc1ccccc1-c1nc2ccc(Cl)cn2c1Nc1ccc2c(c1)OCCO2`: 5.03%.
Regarding `CCS(=O)(=O)N1CCc2cc(C(=O)Nc3cccc(NC(C)=O)c3)ccc21`, the inhibition was found to be 7.95%.
Next, `COc1ccc(-c2ccc(=O)n(CC(=O)Nc3ccccc3C(F)(F)F)n2)cc1`: -11.8%; `CCc1ccc(CNC(=O)c2ccc(-n3c(C)cc4c3CCC(C)C4)cc2)cc1` (configuration not stated): 5.34%.
In the case of `COc1cc(Br)c(C2CC(=O)Nc3cc4c(cc32)OCCO4)cc1OC` (configuration not stated), the inhibition was -3.07%.
Consider `Cc1ccc(S(=O)(=O)Nc2ccc3c(c2)CCCN3C(=O)c2cccs2)cc1C`, for which the inhibition turned out to be 11.3%.
`Cc1cccc(NC(=O)C(Cc2ccccc2)N2Cc3ccccc3C2=O)c1C` (configuration not stated): the inhibition was -9.25%.
With `CCc1ccc(NC(=O)c2ccc(F)c(S(=O)(=O)N3CCc4ccccc4C3)c2)cc1` the figure was -1.42%.

As usually defined, the inhibition is the drop in the measured response relative to a control, in per cent.
